Measurements reported in PMC12040169 (PLOS Biology, 2025).
The other results are listed elsewhere or left out.

System: T1, C. trachomatis L2/434/Bu expressing GFP (CTL2-GFP)
T1 construct: L2/434/Bu GFP intracellular growth in HeLa cells
Design: species or system HeLa; C. trachomatis total inclusion area by high-content imaging, normalised to DMSO
Conditions: total inclusion area; 28.5 h, 10 µM; inhibitor
Summary of the method: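 Host cell viability was gauged from Hoechst-stained nuclei counts, while chlamydial growth was taken from total inclusion area and inclusion number per well. Cells were fixed and imaged by high-content microscopy once bulk GFP and resorufin fluorescence had been measured.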

SMILES | % of control remaining
COCC(=O)N1CCc2nc(-c3ccc(F)cc3)sc2C1 [CBK281673] | 62.92
NC1CC(c2cc(NCCOc3ccccc3Cl)ncn2)C1 (stereo not drawn) [CBK307167] | 61.5421
O=C(CCn1c(C(F)F)cc2cccnc21)NCc1ccccn1 [CBK285068] | 110.487
c1ccc(OCCSc2cc(N3CCCC3)ncn2)cc1 [CBK103689] | 80.6817
Cc1cccnc1C(Cc1ccsc1)NC(=O)Cn1ccnc1 (stereo not drawn) [CBK284802] | 102.504
CC1CCc2onc(C(=O)NCc3nccn3C)c2C1 (stereo not drawn) [CBK281514] | 86.7934
O=C(NCCCn1ccnc1)C1CCN(C(=O)c2cccc(Cl)c2)CC1 [CBK307596] | 75.972
CCC1CCCCN1Cc1nc2c(c(=O)n(C)c(=O)n2C)n1CCCO (stereo not drawn) [CBK269365] | 118.292
CCc1nn(CC(=O)NCC2CC2)c(=O)c2cc3sc(C)cc3n12 [CBK284100] | 75.85
FC(F)(F)c1cccc(CSc2nccnc2N2CCCC2)c1 [CBK107178] | 76.7906
Cn1ccnc1SCCNC(=O)c1cccc(Cn2cccn2)c1 [CBK282112] | 70.2163
CC(=O)Nc1nc(-c2ccccc2C)ccc1C(=O)N(C)C [CBK106328] | 88.4936
Cc1ccc(-c2cc(C(=O)NCCCn3ccnc3)no2)cc1 [CBK268200] | 91.9018
Cc1nccn1CC1CCCN(Cc2nc3ccccc3[nH]2)C1 (stereo not drawn) [CBK281619] | 99.0608
O=C(c1cccc(Br)c1)N1CCN(S(=O)(=O)N2CCOCC2)CC1 [CBK267470] | 110.916
Cc1nc(N)nc(N2CCN(C)CC2)n1 [CBK015681] | 87.8268
CC1CCN(C(=O)C2CCCCC2C(=O)O)CC1 (stereo not drawn) [CBK028392] | 111.373
O=C(C[n+]1ccccc1)c1ccccc1Cl [CBK016283B] | 19.5552
CCn1c(CCCNC=O)nc2ccccc21 [CBK269551] | 76.1231
O=C(c1ccco1)N1CCN(c2cc(-c3cc(C(F)(F)F)cc(C(F)(F)F)c3)ncn2)CC1 [CBK037734] | 81.4573
CC1=[N+]([O-])C2(N)CCc3nonc3C2(O)C1 (stereo not drawn) [CBK261513] | 97.6489
O=C(Nc1ccc(Cl)cc1Cl)C1CC2CCC1C2 (stereo not drawn) [CBK058237] | 38.7208
O=C(O)CN1/C(=C\C=C2/SC(=S)N(c3ccccc3)C2=O)Sc2ccccc21 [CBK265251] | 120.581
COc1ncc(-c2nccnc2OCC2COc3ccccc3O2)c(OC)n1 (stereo not drawn) [CBK106754] | 106.272
